# Data from PubChem BioAssay AID504332 (National Center for Advancing Translational Sciences (NCATS), 2011).
# Several values for one entry are separate records, joined by “and”; a condition that tells them apart may be missing. Identical values can stand only once. In all, about 350,000 compounds went through this assay and about 31,000 (8.9%) were called active. Inconclusive results, whose numbers are uncertain, are shown with a selection of clear calls. Calls follow the shape of the dose curve; as a rule, active = well fitted inhibition curve with a large enough effect; inconclusive = small, poorly fitted or top-dose-only effect; inactive = no such curve, though single readings can be large or run the other way. Potencies beside an inconclusive call are fits to weak or partial responses and may not hold up.
# Molecular target: Histone-lysine N-methyltransferase EHMT2 (Homo sapiens) (UniProt Q96KQ7)
# Assay: qHTS Assay for Inhibitors of Histone Lysine Methyltransferase G9a; also: nearly all actives have a fitted effect of over 75% in size
# Conditions: G9a H3K9 monomethylation, AlphaScreen, 2 h; activity, negative = inhibition: at 59 µM (top of the series) unless noted
# In short: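 Chemiluminescent proximity detection of H3K9 monomethylation, read after 10 min bead incubation in the dark. Reaction: 20 nM G9a, 500 nM biotin-H3K9 peptide, 20 uM SAM cofactor, 2 h, room temperature, following 15 min enzyme-compound preincubation.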
# % is scaled to controls: 0 for no effect and ±100 for the full control effect; potency is read from the fitted curve at half-maximal effect; tags tell the direction and shape of the fitted curve.
# Chain of UniProt Q96KQ7 (Q96KQ7 whole entry, looked up): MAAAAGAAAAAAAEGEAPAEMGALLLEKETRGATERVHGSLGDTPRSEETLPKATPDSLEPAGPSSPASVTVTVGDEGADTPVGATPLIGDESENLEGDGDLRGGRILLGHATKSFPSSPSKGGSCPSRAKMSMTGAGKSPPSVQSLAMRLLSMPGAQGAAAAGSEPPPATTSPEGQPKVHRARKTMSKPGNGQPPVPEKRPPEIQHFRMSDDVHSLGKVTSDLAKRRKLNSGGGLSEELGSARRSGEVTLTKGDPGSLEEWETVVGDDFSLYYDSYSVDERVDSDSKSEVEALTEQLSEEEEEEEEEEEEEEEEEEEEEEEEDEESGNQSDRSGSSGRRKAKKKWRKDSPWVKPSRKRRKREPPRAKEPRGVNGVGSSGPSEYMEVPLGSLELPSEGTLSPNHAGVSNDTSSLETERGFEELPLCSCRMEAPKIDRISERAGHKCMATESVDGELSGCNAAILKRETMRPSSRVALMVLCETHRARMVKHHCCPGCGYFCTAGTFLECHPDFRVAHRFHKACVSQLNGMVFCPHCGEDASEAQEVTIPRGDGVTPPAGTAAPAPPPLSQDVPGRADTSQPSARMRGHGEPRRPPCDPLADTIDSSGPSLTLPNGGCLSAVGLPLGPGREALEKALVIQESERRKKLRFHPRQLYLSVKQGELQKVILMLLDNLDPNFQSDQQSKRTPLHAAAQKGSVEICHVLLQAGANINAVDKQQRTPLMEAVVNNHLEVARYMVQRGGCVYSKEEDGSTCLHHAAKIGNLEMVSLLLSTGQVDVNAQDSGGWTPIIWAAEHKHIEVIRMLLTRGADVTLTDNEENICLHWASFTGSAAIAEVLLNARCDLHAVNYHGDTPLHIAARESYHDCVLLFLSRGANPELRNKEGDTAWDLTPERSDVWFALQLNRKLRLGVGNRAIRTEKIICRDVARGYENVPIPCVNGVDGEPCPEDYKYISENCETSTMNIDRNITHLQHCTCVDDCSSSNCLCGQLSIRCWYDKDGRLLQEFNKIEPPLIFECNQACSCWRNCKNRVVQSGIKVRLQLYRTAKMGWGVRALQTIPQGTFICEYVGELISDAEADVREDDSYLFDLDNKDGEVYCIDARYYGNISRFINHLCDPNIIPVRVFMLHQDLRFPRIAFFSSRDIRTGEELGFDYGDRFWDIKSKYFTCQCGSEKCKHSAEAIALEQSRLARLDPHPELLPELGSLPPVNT
Compound,Potency,"activity, negative = inhibition"
COc1ccc(NS(=O)(=O)c2ccc3c(c2)[C@H]2C=CC[C@H]2[C@@H](c2ccc(C(=O)O)cc2)N3)cc1,active: 14.1 µM and active: 25.1 µM,
CN(C)NC(=S)Nc1ccc2nc(-c3ccccn3)c(-c3ccccn3)nc2c1,,inconclusive: -84.5% [inhibitor]
c1cnc2ccc(C(c3nnnn3C3CCCC3)N3CCSCC3)cc2c1 (stereo not given),"inconclusive: 28.2 µM [inhibitor, single point]",
O=C1C=C(NCc2ccccc2)c2ccccc2C1=O,"inconclusive: 22.4 µM [inhibitor, partial curve, poor fit]",
CC1CCN(C(=O)CN2C(=O)C(C)(C)Oc3ccc(C(=O)NC4CCCC4)cc32)CC1,"inconclusive: 89.1 µM [inhibitor, partial curve, poor fit]",
N#Cc1c(N)nc2c(c1-c1cccs1)CCCC2,,inactive: 33.8%
CCOc1ccc(CCNCc2c(C(=O)O)c(C)n(Cc3ccccc3F)c2C)cc1,,inactive: -8.05%
Cc1ccc(C(=O)N(NC2=NS(=O)(=O)c3ccccc32)S(=O)(=O)c2ccc(C)cc2)cc1,"inconclusive: 79.4 µM [inhibitor, single point]",
CCOc1cc(/C=N/NC(N)=O)cc(Br)c1OCc1ccccc1F,,inactive: -22.7% [at 102 µM]
COc1ccc(S(=O)(=O)CCC(=O)N2CC(=O)N(CCc3ccccc3)C(=O)C2)cc1,"inconclusive: 6.31 µM [inhibitor, single point]",
O=C(CN(C(=O)c1csnn1)c1ccc2c(c1)OCCO2)NCc1ccc(F)cc1,,inactive: 12% [at 102 µM]
CC(C)c1nnc(NC(=O)C2CCN(S(=O)(=O)c3ccc(-n4cnnn4)cc3)CC2)s1,,inactive: 5.62% [at 102 µM]
OCCN1CCN(Cc2cccc(Oc3ccc(Cl)cc3)c2)CC1,"inconclusive: 79.4 µM [inhibitor, single point]",
Cc1cccn2c(=O)c(C(=O)N3CCN(c4ccc(Cl)cc4)CC3)cnc12,,inactive: 4.35%
CN(c1ccc(OCC(=O)N2CCOCC2)cc1)S(=O)(=O)c1ccc(Cl)cc1,,inactive: -26.7% [at 102 µM]
COc1cc2c(cc1OC)C(c1cc(Br)ccc1F)N(C(=O)CCl)CC2 (stereo not given),"inconclusive: 89.1 µM [inhibitor, single point]",
CCN(CC(=O)c1c(N)n(C)c(=O)n(C)c1=O)c1cccc2ccccc12,"inconclusive: 39.8 µM [inhibitor, partial curve, poor fit]",
CC(C)CCCN1C(Nc2ccccc2)=NC[C@@H]1Cc1ccccc1,"inconclusive: 89.1 µM [inhibitor, single point]",
CCN(CC)c1ccc(NC(=O)CCc2c(C)nc3ncnn3c2C)c(C)c1,active: 17.8 µM,
CCOc1ccc(C2CC(c3ccc(OC)c(OC)c3)n3nc(N)nc3N2)cc1 (stereo not given),"inconclusive: 89.1 µM [inhibitor, partial curve, poor fit]",
Oc1ccc(-c2cn3c(n2)SCC3)cc1O,active: 1.12 µM,
COc1ccc(Cl)cc1NC(=O)Cn1nnc2sc(-c3ccccc3)cc2c1=O,,inactive: 0.867%
CCOC(=O)c1ccc(N2N=C(C)/C(=C/C=C/c3ccco3)C2=O)cc1,"inconclusive: 8.91 µM [inhibitor, partial curve, poor fit]",

Compound,Potency,"activity, negative = inhibition"
CCc1ccccc1NC(=O)CN(C)Cc1c(O)ccc2ccccc12,active: 1.78 µM,
COc1ccc2c(c1)cc1n2CCN=C1NN,active: 39.8 µM,
O=C(NCCc1c[nH]c2ccccc12)C(=O)NCC1OCCCN1S(=O)(=O)c1ccc(F)cc1 (stereo not given),,inactive: -7.66%
CC(C)c1ccc(S(=O)(=O)Nc2ccc(N3CCOCC3)cc2)cc1,"inconclusive: 79.4 µM [inhibitor, partial curve, poor fit]",
O=C(c1cn(-c2ccccc2)nc1-c1cccs1)N1CCN(c2ccccc2)CC1,"inconclusive: 79.4 µM [inhibitor, single point]",
CCN(CC)CCNCc1ccc(-c2ccc(Cl)cc2)o1,active: 50.1 µM,
CC1CCCCC12NC(=O)N(CC(=O)OCc1ccc(Br)cc1)C2=O (stereo not given),"inconclusive: 10 µM [inhibitor, partial curve, poor fit]",
CCOC(=O)c1cc2c(=O)n3ccccc3nc2n(Cc2ccco2)c1=NC(=O)c1cccc(Br)c1,"inconclusive: 8.91 µM [inhibitor, partial curve, poor fit]",
CCc1ccc(CN(Cc2ccco2)C(=O)c2cc(-c3ccc(C)c(F)c3)on2)cc1,,inactive: -6%
O=C1C2CCCCN2C(=O)N1CCN1CCN(c2ccc([N+](=O)[O-])cc2)CC1 (stereo not given),,inconclusive: -58.6% [inhibitor]
O=C(CN1CCN(Cc2ccccc2)CC1)NCCNc1ccc([N+](=O)[O-])cn1,,inactive: 1.7% [at 102 µM]
O=C1CC(c2ccco2)Sc2nc3ccccc3n21 (stereo not given),active: 44.7 µM,
OC(COCC1COc2ccccc2O1)CN1CCN(c2ccccc2F)CC1 (stereo not given),"inconclusive: 79.4 µM [inhibitor, partial curve, poor fit]",
Cc1ccc(C(=O)Nc2cccc(C(=O)N/N=C/c3ccc(O)cc3)c2)cc1,,inactive: 4.9%
Cc1sc2nc(CSc3ccc([N+](=O)[O-])cc3)[nH]c(=O)c2c1C,"inconclusive: 44.7 µM [inhibitor, partial curve]",
CCN1CCN(C(=O)CSCc2nc(-c3ccc(OC)c(OC)c3)oc2C)CC1,"inconclusive: 50.1 µM [inhibitor, partial curve]",
O=C(NCc1ccccc1)c1cccc(OCC(=O)N2CCN(C(=O)c3ccco3)CC2)c1,active: 8.91 µM,
Cc1[nH]n(-c2ccccc2)c(=O)c1C=Nc1ccc(S(=O)(=O)Nc2nccs2)cc1,"inconclusive: 5.01 µM [inhibitor, full curve]",
CC(C)NCC(O)COc1c(F)cc(Br)cc1F (stereo not given),"inconclusive: 79.4 µM [inhibitor, partial curve, poor fit]",
CCC1C(=O)N=C(SCC(=O)Nc2ccc(Br)cn2)NC1=O (stereo not given),"inconclusive: 89.1 µM [inhibitor, single point]",
CN(C)c1ccc(NC(=O)Cn2cc(S(=O)(=O)Cc3ccccc3Cl)c3ccccc32)cc1,active: 5.01 µM,
Cc1ccc(C)c(OCc2n[nH]c(=S)o2)c1,"inconclusive: 3.98 µM [inhibitor, single point]",
